Data: PubChem BioAssay AID504832 (National Center for Advancing Translational Sciences (NCATS), 2011)
About 18,000 (5.8%) of roughly 310,000 compounds were called active. The shares of active, inactive and inconclusive entries below differ from those in the screen. Calls come from the whole dose curve; as a rule, active = well fitted inhibition curve with a large enough effect; inconclusive = small, poorly fitted or top-dose-only effect, or another doubt; inactive = no such curve, though single readings can be large or run the other way. Potencies of inconclusive entries are left out as doubtful fits.

Assay: Primary qHTS for delayed death inhibitors of the malarial parasite plastid, 48 hour incubation
Conditions: P. falciparum luciferase growth in erythrocytes; series mostly up to 28.7 µM
In short: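 Growth was read as firefly luciferase luminescence after a 48 h, 37 C, 5% CO2 exposure of compounds to reporter-bearing P. falciparum cultures (0.1% parasitemia, 2% hematocrit final) in Albumax-supplemented RPMI 1640.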
Potency is the fitted concentration of half-maximal effect; tags give direction and shape of the fitted curve.

SMILES	Potency
O=C(/C=C/c1ccc([N+](=O)[O-])cc1)/C=C/c1ccco1	inconclusive [inhibitor, single point]
COC(=O)C1=C(C)NC(=O)NC1c1ccc(-c2ccccc2Cl)o1 (stereo not drawn)	inactive
CC1CCCN(S(=O)(=O)c2cccc(C(=O)NCc3ccco3)c2)C1 (stereo not drawn)	inconclusive [inhibitor, single point]
COCCNC(=S)Nc1ccc(Cl)c(Cl)c1	inactive
N/C(=N\OC(=O)c1ccc2c(c1)OCO2)c1ccc([N+](=O)[O-])cc1	inactive
COc1ccc(/C=N/NC(=O)c2ccncc2)cc1OC	inactive
O=C(Nc1cccnc1)c1cccc(S(=O)(=O)N2CCCC2)c1	inactive
O=C(c1ccncc1)N1CCN(S(=O)(=O)c2ccc3ccccc3c2)CC1	inactive
O=C(Nc1ccccc1)c1ccc(NCc2ccco2)c(S(=O)(=O)N2CCOCC2)c1	inconclusive [inhibitor, single point]
CCOC(=O)CSc1nnc(CCCCCN2C(=O)c3cccc4cccc(c34)C2=O)o1	inconclusive [inhibitor, partial curve, poor fit]
Clc1ccc2[nH]cc(-c3nnnn3-c3ccc4ccccc4c3)c2c1	inconclusive [inhibitor, single point]
O=C(Nc1c2c(nn1-c1ccccc1)CS(=O)(=O)C2)c1ccccc1Br	inactive
c1ccc(CSc2nnc(-c3ccco3)n2Cc2ccco2)cc1	inconclusive [inhibitor, single point]
CC1=[N+](C)c2c(ccc3cccnc23)C1(C)C	inconclusive [inhibitor, partial curve]
O=C(Nc1ccccc1N1CCCCC1)c1cc(S(=O)(=O)N2CCOCC2)ccc1F	active: 10.4 µM
Cc1ccc(C(=O)NC(=S)Nc2ccc(-c3ccc(CO)o3)cc2)cc1	inactive
COc1cccc(C2c3[nH]c4ccccc4c3CCN2Cc2cnn(C)c2)c1 (stereo not drawn)	inconclusive [inhibitor, single point]
COc1ccc(NC(=O)c2cc3ccccc3cc2O)cc1	inconclusive [inhibitor, full curve, poor fit]
COc1ccc(NC(=O)/C(C#N)=C/c2c(C)nn(-c3ccc(F)cc3)c2Cl)cc1OC	inconclusive [inhibitor, partial curve, poor fit]
COC(=O)c1cc(NC(=O)c2c(Cl)cnn2C)cc(C(=O)OC)c1	inactive
N/C(=N\OC(=O)CCC1CCCC1)c1cccc([N+](=O)[O-])c1	inactive
COc1ccc(C(=O)NNC2=Nc3cccc4cccc2c34)cc1	inconclusive [inhibitor, single point]
O=C1N(Cc2ccccc2)c2ccc(Cl)cc2C12OCCO2	inconclusive [inhibitor, partial curve, poor fit]
Fc1ccc(CCN2CCN=C2Nc2ccccc2)cc1	inconclusive [inhibitor, single point]
c1ccc(CCNc2ccccc2)cc1	inactive

SMILES	Potency
COc1c2c(cc3c1OCO3)CC[N+](C)=C2	inconclusive [inhibitor, partial curve, poor fit]
Cc1ccc(-c2cc(Cc3ccc(F)cc3)c(=O)[nH]n2)cc1	inactive
O=C1OC(c2ccc(O)cc2)(c2ccc(O)cc2)c2ccccc21	inactive
CC(=O)NC(=O)NC1OC(=O)C(Cl)=C1Cl (stereo not drawn)	inconclusive [inhibitor, single point]
COc1cc(C(=O)O/N=C(\N)c2ccc([N+](=O)[O-])cc2)cc(OC)c1OC	inconclusive [inhibitor, single point]
COc1cccc(-n2c(COc3ccc(C)cc3)nnc2SCC(N)=O)c1	inconclusive [inhibitor, full curve]
CCN1C(=O)[C@@H]2[C@H](C1=O)[C@@H]1C(=O)Nc3ccccc3C(=O)N1[C@@H]2c1cccc(C)c1	inactive
CS(=O)(=O)c1ccccc1-c1nnc(NC(=O)C2=COCCO2)o1	inactive
Nc1nnnn1/N=C/c1ccccc1OCc1ccc(Cl)cc1Cl	inconclusive [inhibitor, partial curve]
c1cc(Nc2ncnc3sccc23)cc(-c2nnc3n2CCCCC3)c1	inconclusive [inhibitor, single point]
O=C(/C=C/c1ccco1)Nc1cc(Cl)ccc1C(=O)O	inconclusive [inhibitor, partial curve, poor fit]
CCOC(=O)c1cc(-c2ccccc2)sc1NC(=O)c1cc(OC)c(OC)c(OC)c1	inactive
O=c1c([N+](=O)[O-])c(NC2CCCCC2)c2ccccc2n1-c1ccccc1	inconclusive [inhibitor, single point]
Cc1cc(=O)n2c(C(=O)Nc3ccc(C)c(C)c3)c(C(=O)Nc3ccccc3)sc2n1	inconclusive [inhibitor, single point]
COc1ccccc1C1CC(c2ccc(C)cc2)Nc2ncnn21 (stereo not drawn)	inconclusive [inhibitor, partial curve]
CC(=O)C1(c2ccccc2)CCN(C(=O)C2CCC(=O)N(CCc3cccc(F)c3)C2)CC1 (stereo not drawn)	inconclusive [inhibitor, single point]
CC(C)(C)NC(=S)N/N=C\c1ccc(-c2ccc([N+](=O)[O-])cc2)o1	inconclusive [inhibitor, single point]
CS(=O)(=O)c1cnc2c(-c3ccc(F)cc3)cnn2c1N	inactive
O=C(Nc1cccc(S(=O)(=O)N2CCCC2)c1)c1cccc(OC(F)F)c1	inconclusive [inhibitor, single point]
CCOC(=O)c1cnc(-n2nc(C)cc2C)nc1NCCc1ccccc1	active: 4.15 µM
CC(C)C(=O)O/N=C1\CCS(=O)(=O)c2sccc21	inactive
CCN(CC(=O)Nc1c(F)cccc1F)C(=O)/C=C/c1ccc(OCC#N)c(OC)c1	inconclusive [inhibitor, single point]
CCc1cc(C(=O)N(CC)CC(=O)Nc2ccc(OC)cc2)sc1C	inconclusive [inhibitor, single point]
COc1ccc2c(c1)c(C(=O)CN1CCN(C(=O)c3ccco3)CC1)c(C)n2C	inconclusive [inhibitor, single point]
CCOC(=O)C1CCN(CC(=O)Nc2c(C(=O)OC)[nH]c3cccc(C)c23)CC1	inconclusive [inhibitor, partial curve, poor fit]

SMILES	Potency
Cc1ccc(Cl)cc1N1CCN(C(=O)C2CCC(=O)N(C3CCCCCC3)C2)CC1 (stereo not drawn)	active: 11.7 µM
COc1ccc(C(NC(=O)C2CCCCC2)c2c(O)ccc3ccccc23)cc1 (stereo not drawn)	inconclusive [inhibitor, single point]
O=C(CN(C(=O)c1cccc([N+](=O)[O-])c1)C1CCCCC1)Nc1ccc(Cl)c([N+](=O)[O-])c1	active: 1.85 µM
CN=C1SC(CC(=O)Nc2ccc(F)cc2F)C(=O)N1/N=C(\C)c1cccc(OCC(=O)O)c1 (stereo not drawn)	inconclusive [inhibitor, full curve, poor fit]
CC(O)(c1ccccc1)C(c1ccccc1)C1CCCCN1 (stereo not drawn)	inactive
Cc1ccc2c(c1)c(N=NC(N)=O)c(O)n2C	inactive
CC1CN(CC(=O)NN=C(c2ccccc2)c2ccccc2)CC(C)O1 (stereo not drawn)	inconclusive [inhibitor, partial curve, poor fit]
CCCNC(=S)N1CCC(NC(=O)C23CC4CC(CC(C4)C2)C3)CC1	inconclusive [inhibitor, single point]
O=C(O)/C(=C/c1ccco1)NC(=O)c1ccc(Br)o1	inconclusive [inhibitor, single point]
NS(=O)(=O)c1cc(C(=O)OCC(=O)c2ccccc2)c(Cl)cc1Cl	inactive
COc1cccc(C2C(C(C)=O)=C(C)Nc3ncnn32)c1 (stereo not drawn)	inactive
CC1(C)C(c2ccccc2)=NC(c2ccc(F)cc2)N1O (stereo not drawn)	inactive
Cc1cc(O)c(C(C)C)cc1N=Cc1cc([N+](=O)[O-])ccc1O	inconclusive [inhibitor, single point]
Cc1nn(-c2nc3ccccc3[nH]2)c(N)c1-c1ccccc1	inactive
CC(O)c1nc2cc([N+](=O)[O-])ccc2n1Cc1ccccc1 (stereo not drawn)	active: 13.1 µM
O=C(NCc1ccco1)c1ccc(Cl)c(S(=O)(=O)N2CCc3ccccc32)c1	inconclusive [inhibitor, partial curve, poor fit]
Cc1ccc(N(C(=O)Nc2ccccc2)C2=NCCC2)cc1	inactive
CCc1ccc[n+](-c2[nH]c(=O)sc2/C=N/NC([S-])=Nc2ccccc2)c1	inconclusive [inhibitor, partial curve]
O=C(c1ccc(-n2cncn2)c([N+](=O)[O-])c1)N1CCN(S(=O)(=O)c2cccc(F)c2)CC1	inconclusive [inhibitor, single point]
COc1ccc(N(CC(=O)NCCSCc2ccco2)S(=O)(=O)c2ccc(C)cc2)cc1	inconclusive [inhibitor, partial curve]
CC(C(=O)NCCCc1ccccc1)n1cccc1C(=O)c1ccccc1 (stereo not drawn)	inactive
CCC(NC(=O)CCc1ccccc1)c1ccccc1 (stereo not drawn)	inactive
COc1ccc(N(CCC(=O)Nc2ccccc2F)S(=O)(=O)c2ccc(C)cc2C)cc1	inconclusive [inhibitor, partial curve, poor fit]
